{"source": "PubChem BioAssay AID1671188", "about": "(National Center for Advancing Translational Sciences (NCATS), 2021)", "note": "In all, about 100,000 compounds went through this assay and about 250 (0.25%) were called active. Inconclusive means that the source gave no clear call. Such entries were picked first, then a sample of the others. The call rests on the fitted dose curve; in most records, active means well fitted inhibition curve with a large enough effect; inconclusive means small, poorly fitted or top-dose-only effect; inactive means flat fitted curve, though single readings scatter. No potency is given beside an inconclusive call; the fits are too rough. On the % scale 0 is the no-effect control and ±100 the full control effect; potency means the concentration at half of the fitted maximal effect; tags describe the fitted curve by direction and shape."}
{"target": "Alanine aminotransferase 2 (Homo sapiens) (UniProt Q8TD30)", "sequence (Q8TD30 whole entry, looked up)": "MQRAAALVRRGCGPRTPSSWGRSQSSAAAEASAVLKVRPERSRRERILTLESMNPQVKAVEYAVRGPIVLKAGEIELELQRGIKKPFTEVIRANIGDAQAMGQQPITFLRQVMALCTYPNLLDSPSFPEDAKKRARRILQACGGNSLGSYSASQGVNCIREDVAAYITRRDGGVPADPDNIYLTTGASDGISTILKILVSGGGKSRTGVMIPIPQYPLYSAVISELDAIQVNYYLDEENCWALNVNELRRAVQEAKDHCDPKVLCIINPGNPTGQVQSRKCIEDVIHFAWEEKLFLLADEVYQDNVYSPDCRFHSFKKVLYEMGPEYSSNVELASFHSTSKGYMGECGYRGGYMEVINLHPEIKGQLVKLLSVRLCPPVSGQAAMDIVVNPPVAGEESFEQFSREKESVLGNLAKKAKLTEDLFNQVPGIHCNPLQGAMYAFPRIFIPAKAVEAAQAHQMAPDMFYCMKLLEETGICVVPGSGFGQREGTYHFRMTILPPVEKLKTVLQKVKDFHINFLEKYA", "assay": "Primary qHTS assay for inhibitors of Glutamate pyruvate transaminase 2 (GPT2); further: nearly all actives have a fitted effect of over 60% in size", "conditions": "Recombinant GPT2, coupled pyruvate oxidase/HRP Amplex Red fluorescence; activity change, negative = inhibition: at 57.7 µM (top of the series) unless noted; series mostly up to 57.7 µM", "procedure,_shortened": "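GPT2 10ng/uL, a-KG 250uM, L-Ala 2mM, HEPES pH7.5 + 0.0001% Tween; 30 min RT. Then Amplex mix (PO/HRP/ThPP), 30 min RT dark, fluorescence. AOA 50uM used as positive control.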"}
{"smiles": "C=C1CCC(OC(C)=O)C2(C)CC3(O)OC(=O)C(C)=C3CC12", "note": "(stereo not drawn)", "Potency": "inconclusive [inhibitor, single point]"}
{"smiles": "O=C(C1CC1)N1CCN(c2nccc(Nc3ccccc3Cl)n2)CC1", "activity change, negative = inhibition": "inactive: -3.43%"}
{"smiles": "CCN1C(=O)CCN(Cc2cn(C)c3ccccc23)CC12CCOCC2", "outcome": "inactive"}
{"smiles": "CC(C)c1nc2c(c(-c3ccc(Cl)cc3)n1)CCN([S+](=O)([O-])c1cccc(C(F)(F)F)c1)CC2", "activity change, negative = inhibition": "inactive: 3.56%"}
{"smiles": "CC(C)NC(=O)c1ccccc1OCC1CCCN(Cc2ccccn2)C1", "note": "(stereo not drawn)", "activity change, negative = inhibition": "inactive: -1.46%"}
{"smiles": "O=C(CCCCCN1CCN(c2ccccc2-c2ccccc2)CC1)NC1CCCc2ccccc21", "note": "(stereo not drawn)", "outcome": "inactive"}
{"smiles": "Cc1cc(=O)n(CC(=O)Nc2ccc(C)c(Cl)c2)c(N2CCN(c3ccccc3)CC2)n1", "outcome": "inactive"}
{"smiles": "Cc1cc(C)n(CCC(=O)N2CC(F)(F)C[C@H]2c2nc(C)no2)n1", "Potency": "inconclusive [inhibitor, single point]"}
{"smiles": "Cc1noc(C)c1-c1cc2cc(C(C)C)oc2c(N(C)CCN(C)C)n1", "Potency": "inconclusive [inhibitor, single point]"}
{"smiles": "CC1CCC2C(C)(C)C(O)CCC2(C)C12Cc1c(O)cc3c(c1O2)C(N)=NC3", "note": "(stereo not drawn)", "Potency": "inconclusive [inhibitor, full curve]"}
{"smiles": "CC(C)Oc1cccc(-c2nnc(CCC(=O)N3CCC(Cc4ccccc4)CC3)c(=O)[nH]2)c1", "Potency": "inconclusive [inhibitor, single point]"}
{"smiles": "CC(=Cc1ccccc1)C=C1SC(=S)N(CC(=O)O)C1=O", "Potency": "inconclusive [inhibitor, full curve]"}
{"smiles": "COc1cc(C(=O)N2CCC(C(=O)O)(n3cccn3)CC2)ccc1F", "activity change, negative = inhibition": "inactive: -15.1%"}
{"smiles": "CN1CCN(C(=O)CC[C@H]2CNC(=O)[C@@H]3[C@@H](CCN3Cc3ccc(C(=O)O)cc3)N2C)CC1", "Potency": "inconclusive [inhibitor, single point]"}
{"smiles": "COc1ccc(-c2cc(N3CCCN(C(=O)c4ccccc4OC)CC3)n[nH]2)cc1", "Potency": "inconclusive [inhibitor, partial curve, poor fit]"}
{"smiles": "CNC(=O)CCn1ncc2cc(OC3CCc4cccc(-c5cccnc5)c43)ccc21", "note": "(stereo not drawn)", "Potency": "inconclusive [inhibitor, single point]"}
{"smiles": "CC(C)N1C(=O)C2(CCCC2)C1C(=O)Nc1cccc(OC(F)(F)F)c1", "note": "(stereo not drawn)", "Potency": "inconclusive [inhibitor, single point]"}
{"smiles": "CN(C)c1ccc(-c2nnc([C@H]3CCN(CC4CC4)C3)o2)cc1", "outcome": "inactive [at 88.5 µM]"}
{"smiles": "O=C(c1ccncc1)N1CCC(Nc2cccnc2)C1", "note": "(stereo not drawn)", "Potency": "inconclusive [inhibitor, single point]"}
{"smiles": "O=C(c1ccc(F)cc1)C1CCN(CCn2c(=O)[nH]c3ccccc3c2=O)CC1", "Potency": "inactive"}
{"smiles": "O=C(C1CCCN(C(=O)C2CC2)C1)N1CCC(N2Cc3cccn3C2=O)CC1", "note": "(stereo not drawn)", "activity change, negative = inhibition": "inactive: -7.08%"}
{"smiles": "Cc1ccc(S(=O)(=O)c2nnn3c2nc(N2CCCCC2)c2ccccc23)cc1C", "Potency": "inconclusive [inhibitor, full curve, poor fit]"}
{"smiles": "Cc1cc2cc(-c3c(C)noc3C)nc(NCC3CC3)c2o1", "outcome": "inactive [at 88.5 µM]"}
{"smiles": "Cc1cccc(C(=O)NC2CCN(c3cc(-c4ccc(F)cc4)[nH]n3)C2)c1", "note": "(stereo not drawn)", "Potency": "inconclusive [inhibitor, partial curve]"}
{"smiles": "Cc1cn2nc(C(=O)N3CCC(NC(=O)COc4ccc(F)cc4)CC3)cc2c(=O)[nH]1", "outcome": "inactive"}
{"smiles": "O=C(Cn1nc2c(cc1=O)CCCC2)Nc1cccc2[nH]ccc12", "activity change, negative = inhibition": "inactive: -17.9%"}
{"smiles": "O=C(c1ccccc1)N1CC(Oc2ccc(F)cc2F)C1", "Potency": "inconclusive [inhibitor, single point]"}
{"smiles": "O=C1Nc2ccccc2CC12CN(CC1CCNCC1)C2", "activity change, negative = inhibition": "inactive: 2.42% [at 88.5 µM]"}
{"smiles": "Cc1ccc(NC(=O)O[C@@H]2CC[C@]3(C)[C@H](CC[C@H]4OC(=O)C[C@H]43)[C@]2(C)CO)cc1", "activity change, negative = inhibition": "inactive: 1.02% [at 88.5 µM]"}
{"smiles": "CCC(C)C1NC(=O)C(Cc2ccccc2)NC(=O)C(CCCCCC(=O)C(O)CO)NC(=O)C2CCCCN2C1=O", "note": "(stereo not drawn)", "Potency": "inconclusive [inhibitor, partial curve, poor fit]"}
{"smiles": "Cn1ccc2cc(NCc3nnc(C(=O)N4CCC[C@@H]4CN4CCCC4)n3-c3ccccc3)ccc21", "Potency": "inconclusive [inhibitor, partial curve, poor fit]"}
{"smiles": "CN1CCN(c2cc(N3CCCC(CN4CCCCC4)C3)nc(N)n2)CC1", "note": "(stereo not drawn)", "Potency": "inconclusive [inhibitor, single point]"}
{"smiles": "CC(C)CNC(=O)N1CCCC(c2nn[nH]n2)C1", "note": "(stereo not drawn)", "activity change, negative = inhibition": "inactive: -3.34%"}
{"smiles": "Cc1ccc(C2Cn3nnc(-c4noc(-c5cccc(F)c5)n4)c3CO2)cc1", "note": "(stereo not drawn)", "Potency": "inconclusive [inhibitor, single point]"}
{"smiles": "O=C1NCCCCCCN(S(=O)(=O)c2ccc3c(c2)CCC3)[C@H]2CCCC[C@@H]12", "outcome": "inactive"}
{"smiles": "CCC(=O)Nc1ccc(C2(C(=O)NCc3ccc(Br)cc3)CCC2)cc1", "Potency": "inconclusive [inhibitor, full curve, poor fit]"}
{"smiles": "CNC(=O)c1cc(Nc2cccc(N(C)C)c2)cc2c1OCCN2Cc1cccnc1", "Potency": "inconclusive [inhibitor, partial curve, poor fit]"}
{"smiles": "COC(=O)C1=C(C)N=C2SC=C(CC(=O)N3CCCC3)N2C1c1ccc(C)cc1C", "note": "(stereo not drawn)", "Potency": "inconclusive [inhibitor, full curve, poor fit]"}
{"smiles": "O=C(Nc1ccc([C@@H](O)[C@H]2COCC(=O)N2CCCc2ccccc2)cc1)C1CC1", "Potency": "inconclusive [inhibitor, single point]"}
{"smiles": "CCNC(=O)O[C@@H]1CO[C@H]2[C@@H]1OC[C@@H]2NC(=O)Nc1ccc(C(C)C)cc1", "Potency": "inconclusive [inhibitor, full curve, poor fit]"}
{"smiles": "CCCCCCCCCCOc1cc2c(=O)c(C(=O)OCC)c[nH]c2cc1OCC", "Potency": "inconclusive [inhibitor, single point]"}
{"smiles": "CC(=O)Nc1ncc(C(=O)N2CC[C@](C)(O)[C@@H](O)C2)s1", "Potency": "inconclusive [inhibitor, single point]"}
{"smiles": "Cc1ccc(C(=O)NC2CCN(c3cc(-c4ccccc4)[nH]n3)C2)cc1", "note": "(stereo not drawn)", "Potency": "inconclusive [inhibitor, single point]"}
